# Test results as given in PubChem BioAssay AID504832 (National Center for Advancing Translational Sciences (NCATS), 2011).
# About 18,000 (5.8%) of roughly 310,000 compounds were called active. Inconclusive results, whose numbers are uncertain, are shown with a selection of clear calls. Calls come from the whole dose curve; as a rule, active = well fitted inhibition curve with a large enough effect; inconclusive = small, poorly fitted or top-dose-only effect, or another doubt; inactive = no such curve, though single readings can be large or run the other way. Potencies of inconclusive entries are left out as doubtful fits.
# Test: Primary qHTS for delayed death inhibitors of the malarial parasite plastid, 48 hour incubation
# Settings: P. falciparum luciferase growth in erythrocytes; series mostly up to 28.7 µM; activity change, negative = inhibition: at the top concentration
# How it was run: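 Luciferase-expressing parasites in RBCs, 2% Hct / 0.1% parasitemia final; RPMI 1640 + 0.5% Albumax; 37 C, 5% CO2, one generation; luminescence read-out, lower signal = inhibition.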
# % is set by controls: 0 for no effect and ±100 for the full control effect; potency is the fitted concentration of half-maximal effect; tags give direction and shape of the fitted curve.
Structure (SMILES),"activity change, negative = inhibition",Potency
CCOc1ccc(Nc2cc(Nc3ccccc3OCC)nc(C=C(C#N)C#N)n2)cc1,inactive: 1.1%,–
Cc1nc2sc3c(c2c(=N)n1N)CCCC3,inactive: -1.94%,–
C#CCNC(=O)C1=C[C@@H](c2csc3ccccc23)[C@H](CCCO)[C@@H](OCC)O1,–,"inconclusive [inhibitor, partial curve]"
Cc1cccc(OCC(=O)Nc2cc(NC(=O)COc3cccc(C)c3C)cc(C(=O)O)c2)c1C,inactive: -1.51%,–
CCCCN(C)CCCN1C(=O)C2C(C(=O)Nc3cccc(OC)c3)C3C=CC2(O3)C1C(=O)NC1CCCCC1C (centres undefined),–,"inconclusive [inhibitor, single point]"
O=C(Nc1cccc(NC(=O)c2ccc([N+](=O)[O-])o2)c1)c1ccco1,–,active: 9.28 µM
O=C(O)c1ccccc1C(=O)c1ccc2c(c1)N(Cc1ccc(Cl)c(Cl)c1)C(=O)CO2,inactive: -119%,–
CCCC(=O)Nc1ccc(-c2csc(N/N=C\c3ccncc3)n2)cc1,–,active: 8.28 µM
CC/C(=N\Nc1ccc([N+](=O)[O-])cc1)c1ccccc1,–,"inconclusive [inhibitor, partial curve]"
Cc1ccc(N/C(=N/S(=O)(=O)c2cccs2)c2ccccc2)c(C)c1,–,"inconclusive [inhibitor, full curve, poor fit]"
Cc1ccc(-n2c(Cn3cnc4ccccc43)nnc2SCC(=O)O)cc1,–,"inconclusive [inhibitor, single point]"
CC(C(=O)O)N1c2cccc3cccc(c23)S1(=O)=O (centres undefined),inactive: 7.42%,–
NC1=NC[C@H](c2ccccc2)N1CCc1cccc(F)c1,–,"inconclusive [inhibitor, single point]"
Cc1ccccc1-c1cc(C(=O)NCC2CC2)nn1CC1CC(c2cccc([N+](=O)[O-])c2)=NO1 (centres undefined),–,active: 5.22 µM
Cc1nn2c(-c3ccc(S(=O)(=O)N4CCN(CCO)CC4)o3)nnc2c2ccccc12,–,active: 9.28 µM
O=C(Nc1ccccc1-c1nnc(SCc2ccccc2)o1)c1ccccc1,–,"inconclusive [inhibitor, single point]"
Cn1c(COc2ccccc2)nnc1SCc1cc(=O)[nH]c2ccccc12,–,"inconclusive [inhibitor, single point]"
Cc1ccc(-c2cc(C(=O)N3CCCc4ccccc43)c3ccccc3n2)cc1,–,active: 8.28 µM
CCOc1ccc(C(=O)CN2CCN(S(=O)(=O)c3ccc(Cl)cc3)CC2)cc1,inactive: -8.9%,–
O=C(NCc1n[nH]c(=S)n1-c1cccc(Cl)c1)c1ccc(S(=O)(=O)N2CCCCC2)cc1,inactive: -26%,–
Cc1cccn2c(=O)c3cc(C(=O)NCCN4CCOCC4)c(=N)n(CCN4CCOCC4)c3nc12,–,"inconclusive [inhibitor, single point]"
Cc1cccc(N2CCN(C(=O)CCS(=O)(=O)c3ccc4c(c3)NC(=O)C(C)S4)CC2)c1C (centres undefined),–,"inconclusive [inhibitor, single point]"
CCCC[C@]12Cc3cc(OC)c(OC)cc3C(O1)C1=C(O2)C(=O)c2ccccc2C1=O,–,active: 1.35 µM

Structure (SMILES),"activity change, negative = inhibition",Potency
FC(F)(F)c1nnc(-c2ccccc2)nc1Sc1ccccc1,–,"inconclusive [inhibitor, partial curve]"
COc1ccc(NC(=O)COC(=O)CNC(=O)c2cccs2)cc1Cl,inactive: 4.76%,–
CN(C1CCCC1)C1CCN(C(=S)Nc2cc(F)cc(F)c2)CC1,–,"inconclusive [inhibitor, full curve, poor fit]"
CCCc1nc2ccc(NC(=O)c3ccco3)cc2c(=O)n1Cc1ccccc1Cl,–,active: 2.33 µM
CC(C)Oc1ccc(CNC(=O)CCC(=O)N2CC(C)Sc3ccccc32)cc1 (centres undefined),–,"inconclusive [inhibitor, single point]"
Cc1cccn2c(=O)c3cc(C(=O)NCc4cccnc4)c(=N)n(C(C)C)c3nc12,–,"inconclusive [inhibitor, partial curve, poor fit]"
CC(=O)c1c(C)[nH]c(C(=O)OCC(=O)NCCCc2ccccc2)c1C,–,"inconclusive [inhibitor, single point]"
COc1cccc(-c2nc(NCc3cccnc3)c3ccccc3n2)c1O,–,active: 11.7 µM
COC(=O)c1c(S(N)(=O)=O)c2ccccc2n1C,inactive: 19.6%,–
Cc1cccc(NC(=S)N(Cc2cccc(Br)c2)CC2CCC(C(=O)O)CC2)c1 (centres undefined),–,"inconclusive [inhibitor, single point]"
COc1ccc(-c2nc(Cn3c(SCc4cccc(F)c4)nc4ccncc43)c(C)o2)cc1OC,–,active: 11.7 µM
CCCC(=O)N1CCC(O)(c2cccc(F)c2)CC1,inactive: -0.135%,–
O=c1nc2n(c3sc4c(c13)CCCC4)C(CBr)CS2 (centres undefined),–,"inconclusive [inhibitor, partial curve, poor fit]"
CCOCCCNC(=S)Nc1ccc(Br)cc1Cl,–,"inconclusive [inhibitor, full curve, poor fit]"
O=C(OCn1nnc2ccccc2c1=O)c1ccc2ccccc2n1,inactive: 4.92%,–
COc1ccc(CNC(=O)COC(=O)CN2C(=O)NC3(CCCC3)C2=O)cc1,–,"inconclusive [inhibitor, partial curve, poor fit]"
CC(=O)N1c2ccc(S(=O)(=O)N3CCCC(C(=O)NC4CCCC(C)C4C)C3)cc2CC1C (centres undefined),–,"inconclusive [inhibitor, partial curve]"
Cc1cc(Cl)ccc1NC(=S)NCC(C)C,inactive: -18.7%,–
Cn1c(=O)c2c(nc(CN3CCN(C(=O)c4ccco4)CC3)n2CC(=O)C(C)(C)C)n(C)c1=O,inactive: -17%,–
CNc1ccc(Br)cc(C(=O)/C=C/c2ccc(OC)cc2OC)c1=O,–,"inconclusive [inhibitor, partial curve, poor fit]"
Cc1ccc(CSCCNC(=O)CSc2ccccc2)cc1,inactive: -4.38%,–
O=C(Cc1cccs1)NC1C(=O)N2C(C(=O)[O-])=C(C[n+]3ccccc3)CSC12 (centres undefined),inactive: -9.14%,–
CCc1ccc(C(=O)NC2CCCCC2)s1,inactive: 254%,–

Structure (SMILES),"activity change, negative = inhibition",Potency
CCC(C)(C)NC(=O)CSc1nc(Cc2ccccc2)nc2ccccc12,–,"inconclusive [inhibitor, single point]"
Cc1ccc(NC(=O)C2(NC(=O)c3cccc(N4C(=O)CSC4c4ccccc4)c3)CCCCC2)cc1 (centres undefined),–,"inconclusive [inhibitor, single point]"
Cc1ccccc1NC(=O)CCCC(=O)c1ccccc1,–,"inconclusive [inhibitor, partial curve, poor fit]"
CNc1snc(C)c1C(=O)OC(C)C(=O)Nc1ccc(F)cc1 (centres undefined),–,"inconclusive [inhibitor, single point]"
Cn1nc(-c2ccccn2)nc2c(=O)n(C)c(=O)nc1-2,–,active: 2.94 µM
O=C(N/N=C/c1ccc(N2CCOCC2)cc1)c1ccccc1NS(=O)(=O)c1cccs1,–,"inconclusive [inhibitor, partial curve]"
Cc1cc(C)c2c(c1)/C(=N\N=c1\sc3ccccc3n1C)C(=O)N2,–,"inconclusive [inhibitor, partial curve]"
O=C(Nc1cccc(C(F)(F)F)c1)C1CC(=O)N(CCc2ccccc2)C1 (centres undefined),–,"inconclusive [inhibitor, single point]"
O=C(c1cc(Br)ccc1O)N1CCN(S(=O)(=O)Cc2ccccc2)CC1,–,"inconclusive [inhibitor, single point]"
O=C(CN1CCCCC1)Nc1ccccc1C(=O)NC1CC1,inactive: 14%,–
CCc1nnc(NC(=O)CSc2nncc(=O)n2N)s1,–,"inconclusive [inhibitor, single point]"
COc1cc(C2C(C#N)=C(N)Oc3cc(C)n(CCN4CCOCC4)c(=O)c32)cc(OC)c1OC (centres undefined),–,"inconclusive [inhibitor, full curve, poor fit]"
O=C(Nc1ccncc1)C1CCN(S(=O)(=O)c2ccc(Cl)cc2)CC1,–,"inconclusive [inhibitor, single point]"
Cc1ccc(Cl)cc1NC(=O)C1COc2ccccc2O1 (centres undefined),inactive: -5.43%,–
O=C(CN1CCN(C(=O)c2ccccc2)CC1)Nc1cccc(S(=O)(=O)N2CCCC2)c1,–,"inconclusive [inhibitor, single point]"
Cc1cc(SCC(=O)NCC(c2cccs2)N2CCOCC2)c(C)cc1Br (centres undefined),–,"inconclusive [inhibitor, partial curve, poor fit]"
CCOCCCNC(=O)C1CCN(S(=O)(=O)c2ccc(C)cc2)CC1,–,"inconclusive [inhibitor, single point]"
CC(C)[C@H](NC(=O)NC1CCN(Cc2ccccc2)CC1)C(=O)O,–,"inconclusive [inhibitor, single point]"
CCOc1ccc(CCNC(=O)CS(=O)Cc2nc(-c3ccc(OC)c(OC)c3)oc2C)cc1OCC (centres undefined),–,"inconclusive [inhibitor, partial curve]"
COc1ccc(NS(=O)(=O)c2ccc(NC(=O)c3cnn4c(C(F)F)cc(-c5ccc(C)cc5)nc34)cc2)cc1,–,"inconclusive [inhibitor, full curve, poor fit]"
Cc1ccc(Cl)c(OCC(=O)N(C)CC(=O)Nc2ccc(N3CCOCC3)cc2)c1,–,"inconclusive [inhibitor, single point]"
Cc1ccc(NC(=O)CSc2nc3ccccc3nc2N2CCOCC2)c(C)c1,inactive: -25.3%,–
CCOC(=O)N1CCN(S(=O)(=O)c2ccc(C(=O)NNc3nc4cc(C)cc(C)c4s3)cc2)CC1,–,"inconclusive [inhibitor, single point]"
